Measurements: the supplement of paper PMC3334620
Over roughly 33,000 sequences, “E-score (-0.5 to 0.5)” has its median near -0.054; the highest 2% begin near 0.35. The list shows a part of the results.

What follows are sequences tested against T1, Stb5 (UniProt P38699) (assay: PBM E-score (8-mer binding enrichment) (E-score (-0.5 to 0.5)); higher = stronger / more preferred TF binding; most listed sequences are background and not binding sites). Details: protein concentration: 200 nM; construct: GST-full length.
T1 sequence: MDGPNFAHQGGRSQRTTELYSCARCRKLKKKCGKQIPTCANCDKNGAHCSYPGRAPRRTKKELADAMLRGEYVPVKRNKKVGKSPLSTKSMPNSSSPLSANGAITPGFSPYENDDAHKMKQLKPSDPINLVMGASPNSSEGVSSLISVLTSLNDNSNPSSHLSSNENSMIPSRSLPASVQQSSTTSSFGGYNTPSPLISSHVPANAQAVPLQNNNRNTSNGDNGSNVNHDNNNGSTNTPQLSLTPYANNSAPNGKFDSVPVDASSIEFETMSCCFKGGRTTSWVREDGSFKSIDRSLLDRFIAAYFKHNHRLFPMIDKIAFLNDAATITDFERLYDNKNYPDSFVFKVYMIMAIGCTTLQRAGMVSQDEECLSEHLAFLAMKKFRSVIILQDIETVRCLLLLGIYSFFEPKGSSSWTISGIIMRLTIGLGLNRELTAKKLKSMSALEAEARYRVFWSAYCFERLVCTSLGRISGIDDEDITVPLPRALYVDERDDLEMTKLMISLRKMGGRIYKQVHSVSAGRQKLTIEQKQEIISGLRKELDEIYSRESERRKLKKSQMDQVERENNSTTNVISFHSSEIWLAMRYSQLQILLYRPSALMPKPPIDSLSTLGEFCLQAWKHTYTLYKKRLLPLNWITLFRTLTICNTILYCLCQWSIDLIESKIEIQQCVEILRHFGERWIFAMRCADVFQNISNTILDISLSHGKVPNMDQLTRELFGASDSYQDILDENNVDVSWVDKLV
Procedure, shortened: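 Bound GST-tagged yeast transcription factors, applied at about 100-200 nM to double-stranded universal all-10-mer Agilent arrays, were detected with fluorescent anti-GST. Scans were normalised with masliner. A modified Wilcoxon-Mann-Whitney statistic, the E-score, was assigned to each ungapped eight-base word pooled with its reverse complement by the Universal PBM Analysis Suite.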

Sequence | PBM E-score
ATTAACTA | -0.0846
ATACCGAC | 0.398
ATTAATGG | 0.061
ATATACCA | -0.252
GCTGAGTA | -0.108
TAGGTGGA | -0.298
CCATATAG | -0.0251
GGATCATA | 0.0145
AAATATAC | -0.0341
AACTAGTT | -0.266
GTTCTCCA | -0.149
CGACCAAA | 0.0296
CGTATGGA | 0.0515
CACACTTA | -0.143
GCAACGTA | -0.284
GAGGAGTA | -0.0784
AGTGGCTG | -0.126
AGGCCTGA | -0.167
CGATCCAA | 0.0254
ATCGAATG | -0.156
CTATGTAA | 0.0267
AGCACTAT | -0.215
CTAAAAGA | -0.0349
ATCCGATC | 0.235
TATATTGA | 0.0442

Sequence | PBM E-score
ACAACATC | -0.0505
GCTTATCA | -0.0923
AATAACGC | 0.109
GGTGAACC | 0.0716
CCCCGATA | 0.339
CTCGTGGC | -0.152
AGTCTATC | -0.111
CCCTTAAG | -0.0232
CCGGTGTA | 0.366
AGTTAGAA | 0.136
CCTAAGTA | -0.104
AACGGCCT | 0.272
ACTGCACG | -0.037
CGCTCGTC | 0.0535
GATGATTA | 0.142
CGTCCGCA | 0.145
ACGTTTCC | -0.124
CGCTCCAA | 0.0195
GTTCTAAA | 0.0991
TCGAGGAA | -0.24
AACACTTG | -0.273
GCCTACAA | -0.0321
CCCCGAGA | 0.2
AACGGTGG | 0.245
AGAAGCTC | -0.269

Sequence | PBM E-score
CATAAGAG | -0.148
GGAGTGCC | 0.127
AGAGAGGG | -0.247
CATGCAGC | 0.0741
AAAGCTGC | 0.00436
ATGCCTCG | -0.187
ACCGGGCA | 0.276
GTCAATCA | -0.128
AATGAGCC | -0.0951
AAATGTCT | -0.13
ATCTTCCC | 0.0175
CCAAGATC | -0.211
AACCGATG | 0.143
GCCCGACA | 0.334
ACGATGAC | -0.0132
CGCGTCCG | 0.0546
GCCTACCC | -0.13
ATCGGAAA | 0.149
GTTCAAGA | -0.151
ATGGAGCA | -0.13
GCCCTACC | -0.0725
CCGCCGTC | 0.29
AACTCCTC | -0.117
GCGGCATA | 0.33
TACTTACA | -0.19

Sequence | PBM E-score
TAATGAAA | -0.208
AGGACATC | 0.0155
CAGGCGAG | -0.302
ATGGTGGG | -0.133
CGCGCAGA | 0.0979
CCACTGTA | -0.112
AATCGGAC | 0.362
CAGCGGCA | 0.198
GCGTATCA | -0.17
AAGTCCAC | 0.0098
ACTGAGCG | -0.0997
GGCGTGAA | 0.025
ACCAGTGA | -0.215
CTAGCCTC | -0.249
GAATTGAA | -0.0276
CGACTTGA | -0.0752
ACGACGTG | -0.128
CACACTAG | -0.189
TGACAGCA | -0.113
GGCTACAA | -0.205
ACGAATGA | -0.0416
CTGTGCTC | -0.132
GAACTCAA | -0.109
GCACTAAC | -0.0653
GAAAGGGA | -0.107

Sequence | PBM E-score
AGCGGCTG | 0.0872
AATTCAGC | -0.0791
ATCCTGGC | -0.277
AGCACGAC | -0.2
AATTTTGT | 0.0844
CACAGTCC | 0.00418
GTGACAAA | 0.113
GGACCCGA | 0.185
TCGTGAAA | -0.0764
TAAATACA | 0.0708
GGACTTTA | 0.317
TGTGCTAA | 0.0576
AACTCTCG | -0.23
AACCTTAG | -0.164
CAGTTATG | 0.143
AGGCGTCG | 0.0668
CCCCGCCA | 0.406
AGTATGCG | -0.0446
AAATAATA | 0.101
AACGTGCT | -0.21
GCACCCGA | 0.0572
AGACTTAT | -0.204
CGGCAGAC | 0.0711
AGCGGTTG | 0.0188
ACCAACGG | 0.193

Sequence | PBM E-score
ATGGTGCC | 0.222
AGCAGGGG | -0.0872
ACGCGAAT | 0.0453
GGACTAGA | 0.00576
AGATGACC | 0.00414
CTTAACCA | -0.11
ATGAAGGC | -0.094
CGCCCTCA | -0.00815
CGCAAGCA | -0.0326
ACATGTAT | 0.0254
TAAACGAA | -0.0854
ACCGCAGG | 0.241
AACTTCTT | -0.0358
AACATAGA | -0.123
CATGTGAC | -0.169
AAGGTAAA | 0.0733
CGCGTCGC | 0.0312
ACCATTAT | -0.0908
TGACATAA | 0.0303
AACAATCT | -0.129
TATTAACA | -0.0141
AGAAGTGG | -0.112
AATGCGAG | -0.198
AGTCGGTG | 0.385
GCACCTAA | 0.0125

Sequence | PBM E-score
CACGATGG | -0.179
CTATTTCC | 0.16
CAGACTGA | -0.0748
ACATACGT | 0.0721
CACACCCC | 0.0558
AGGGGGTG | -0.153
ATAGGTCA | -0.0628
GAATTTAC | -0.0188
ACAATGAC | -0.0214
CGCCTGAA | -0.0429
ACAGGCTG | -0.336
GACAAGGC | -0.03
ACGGGAAA | 0.19
AATAACTG | 0.0268
GCTCGAGC | 0.134
AGGGCGAT | -0.165
CCATATCC | 0.0628
GCCTTCGC | 0.072
CGTGCGAA | -0.139
CAAGGCAA | -0.139
GGTACGTA | -0.0252
ACCCAAAA | -0.204
